# Measured values taken from the supplement of paper PMC12217912.
# Some of the results follow. Sequences were assembled here from the parent chain. Inactive controls read about 0.05.
# B1: TEV protease; numbered along this chain (parent)
# chain: MGESLFKGPRDYNPISSSICHLTNESDGHTTSLYGIGFGPFIITNKHLFRRNNGTLVVQSLHGVFKVKDTTTLQQHLVDGRDMIIIRMPKDFPPFPQKLKFREPQREERICLVTTNFQTKSMSSMVSDTSCTFPSGDGIFWKHWIQTKDGQCGSPLVSTRDGFIVGIHSASNFTNTNNYFTSVPKNFMELLTNQEAQQWVSGWRLNADSVLWGGHKVFMVKPEEPFQPVKEATQL
# Variants of: B1
# Assay: raw area under fraction-flipped curve 0-4 h after induction (AUC4h, not background-subtracted), DNA-recorder readout of cleavage of the substrate (dimensionless); higher = more cleavage of the substrate by the protease variant
# Details: temperature: 34 °C; time window: 0-4 h after rhamnose induction
# Experimental: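 In vivo DNA recorder in E. coli TOP10(DE3) ΔrhaA at 34 °C. Each TEVp single-site mutant (parent TEVp 0) is paired with a single-site variant of the 7-mer TEVs (canonical ENLYFQ|S). The substrate sits between flexible linkers in a Bxb1-sfGFP-TEVs-SsrA fusion, so cleavage stabilises Bxb1 and speeds flipping of a recombination array, read by NGS. The value is the raw area under the fraction-flipped curve over 0-4 h after rhamnose induction (AUC4h), with ≥20 reads per time point. It is not background-subtracted; inactive controls average about 0.047.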
# 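Note: Bxb1 expression induced with 0.2% (w/v) L-rhamnose at OD600 near 0.5, cultures sampled hourly, flipped fraction per protease–substrate barcode pair counted by paired-end Illumina sequencing.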
Variant,area with substrate CNLYFQS,area with substrate DNLYFQS,area with substrate FNLYFQS,area with substrate INLYFQS,area with substrate LNLYFQS,area with substrate MNLYFQS,area with substrate NNLYFQS,area with substrate PNLYFQS,area with substrate TNLYFQS,area with substrate VNLYFQS,area with substrate WNLYFQS,area with substrate GNLYFQS,area with substrate HNLYFQS,area with substrate KNLYFQS,area with substrate SNLYFQS,area with substrate YNLYFQS,area with substrate RNLYFQS,area with substrate QNLYFQS
MGESLFKGPRDYNPISSSICHLTNEWDGHTTSLYGIGFGPFIITNKHLFRRNNGTLVVQSLHGVFKVKDTTTLQQHLVDGRDMIIIRMPKDFPPFPQKLKFREPQREERICLVTTNFQTKSMSSMVSDTSCTFPSGDGIFWKHWIQTKDGQCGSPLVSTRDGFIVGIHSASNFTNTNNYFTSVPKNFMELLTNQEAQQWVSGWRLNADSVLWGGHKVFMVKPEEPFQPVKEATQL [S26W],0.0542,0.103,0.0652,0.0535,0.047,0.0263,0.0625,0.0722,0.0628,0.0586,0.054,,,,,,,
MGESLFKGPRDYNPISSSICHLTNESCGHTTSLYGIGFGPFIITNKHLFRRNNGTLVVQSLHGVFKVKDTTTLQQHLVDGRDMIIIRMPKDFPPFPQKLKFREPQREERICLVTTNFQTKSMSSMVSDTSCTFPSGDGIFWKHWIQTKDGQCGSPLVSTRDGFIVGIHSASNFTNTNNYFTSVPKNFMELLTNQEAQQWVSGWRLNADSVLWGGHKVFMVKPEEPFQPVKEATQL [D27C],0.0672,0.066,0.0555,0.0621,0.0737,,0.0632,0.0613,0.0639,0.0583,0.0585,0.0603,0.0632,0.0909,0.0526,,,
MGESLFKGPRDYNPISSSICHLTNESWGHTTSLYGIGFGPFIITNKHLFRRNNGTLVVQSLHGVFKVKDTTTLQQHLVDGRDMIIIRMPKDFPPFPQKLKFREPQREERICLVTTNFQTKSMSSMVSDTSCTFPSGDGIFWKHWIQTKDGQCGSPLVSTRDGFIVGIHSASNFTNTNNYFTSVPKNFMELLTNQEAQQWVSGWRLNADSVLWGGHKVFMVKPEEPFQPVKEATQL [D27W],0.0538,0.0568,0.053,0.0629,0.0652,0.0606,0.062,0.0653,0.0572,,0.0448,0.0483,0.06,0.0696,,0.0615,,
MGESLFKGPRDYNPISSSICHLTNESDDHTTSLYGIGFGPFIITNKHLFRRNNGTLVVQSLHGVFKVKDTTTLQQHLVDGRDMIIIRMPKDFPPFPQKLKFREPQREERICLVTTNFQTKSMSSMVSDTSCTFPSGDGIFWKHWIQTKDGQCGSPLVSTRDGFIVGIHSASNFTNTNNYFTSVPKNFMELLTNQEAQQWVSGWRLNADSVLWGGHKVFMVKPEEPFQPVKEATQL [G28D],0.0489,0.0835,0.0641,,0.0622,,0.0604,0.0684,0.0628,0.0356,0.055,0.0498,0.0629,0.0725,0.0518,0.0669,0.0704,
MGESLFKGPRDYNPISSSICHLTNESDIHTTSLYGIGFGPFIITNKHLFRRNNGTLVVQSLHGVFKVKDTTTLQQHLVDGRDMIIIRMPKDFPPFPQKLKFREPQREERICLVTTNFQTKSMSSMVSDTSCTFPSGDGIFWKHWIQTKDGQCGSPLVSTRDGFIVGIHSASNFTNTNNYFTSVPKNFMELLTNQEAQQWVSGWRLNADSVLWGGHKVFMVKPEEPFQPVKEATQL [G28I],0.0617,0.0614,0.0569,0.0218,0.0571,0.0421,,0.0621,0.064,0.0668,0.0431,0.0643,0.0546,0.067,,0.0403,,
MGESLFKGPRDYNPISSSICHLTNESDGCTTSLYGIGFGPFIITNKHLFRRNNGTLVVQSLHGVFKVKDTTTLQQHLVDGRDMIIIRMPKDFPPFPQKLKFREPQREERICLVTTNFQTKSMSSMVSDTSCTFPSGDGIFWKHWIQTKDGQCGSPLVSTRDGFIVGIHSASNFTNTNNYFTSVPKNFMELLTNQEAQQWVSGWRLNADSVLWGGHKVFMVKPEEPFQPVKEATQL [H29C],0.084,0.0791,0.0629,0.0666,0.0731,0.0698,,,0.08,0.0467,0.0611,,0.0705,0.0592,0.0606,0.0588,,0.0629
MGESLFKGPRDYNPISSSICHLTNESDGNTTSLYGIGFGPFIITNKHLFRRNNGTLVVQSLHGVFKVKDTTTLQQHLVDGRDMIIIRMPKDFPPFPQKLKFREPQREERICLVTTNFQTKSMSSMVSDTSCTFPSGDGIFWKHWIQTKDGQCGSPLVSTRDGFIVGIHSASNFTNTNNYFTSVPKNFMELLTNQEAQQWVSGWRLNADSVLWGGHKVFMVKPEEPFQPVKEATQL [H29N],0.0658,0.0381,0.063,0.0625,0.0623,0.0769,0.0483,0.0681,0.0626,,0.0695,0.051,0.0677,0.0663,,0.0696,0.0662,
MGESLFKGPRDYNPISSSICHLTNESDGHLTSLYGIGFGPFIITNKHLFRRNNGTLVVQSLHGVFKVKDTTTLQQHLVDGRDMIIIRMPKDFPPFPQKLKFREPQREERICLVTTNFQTKSMSSMVSDTSCTFPSGDGIFWKHWIQTKDGQCGSPLVSTRDGFIVGIHSASNFTNTNNYFTSVPKNFMELLTNQEAQQWVSGWRLNADSVLWGGHKVFMVKPEEPFQPVKEATQL [T30L],0.0752,0.0701,,0.0646,,0.0629,,0.0794,0.0734,0.0705,0.059,0.0657,0.0897,0.0626,,0.0621,,0.0748
MGESLFKGPRDYNPISSSICHLTNESDGHYTSLYGIGFGPFIITNKHLFRRNNGTLVVQSLHGVFKVKDTTTLQQHLVDGRDMIIIRMPKDFPPFPQKLKFREPQREERICLVTTNFQTKSMSSMVSDTSCTFPSGDGIFWKHWIQTKDGQCGSPLVSTRDGFIVGIHSASNFTNTNNYFTSVPKNFMELLTNQEAQQWVSGWRLNADSVLWGGHKVFMVKPEEPFQPVKEATQL [T30Y],0.0668,0.0731,0.0632,0.0587,0.0696,0.0932,0.0823,0.0587,0.0629,0.068,0.0389,,0.0679,0.0777,,0.0754,,
